Binding signal data for 31 sequences are collected here from publication PMC12820563, “FoxP3 forms a head-to-head dimer in vivo and stabilizes its multimerization on adjacent microsatellites”.

Some of the results follow.

The target in this experiment is T1, MBP-FoxP1dN (Mus musculus, UniProt P58462 326-579).
T1 sequence: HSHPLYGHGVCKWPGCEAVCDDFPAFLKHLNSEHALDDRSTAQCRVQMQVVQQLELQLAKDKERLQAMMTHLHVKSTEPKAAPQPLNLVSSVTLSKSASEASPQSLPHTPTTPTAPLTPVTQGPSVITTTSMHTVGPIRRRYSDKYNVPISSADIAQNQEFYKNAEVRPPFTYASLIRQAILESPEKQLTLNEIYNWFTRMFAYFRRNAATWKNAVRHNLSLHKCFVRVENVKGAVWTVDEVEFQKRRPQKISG
In words: PD-seq (MBP pull-down with sequencing); 20 mM Tris-HCl pH 7.5, 100 mM NaCl, 1.5 mM MgCl2, 0.4 uM protein, 0.1 uM dsDNA library, 30 min, room temperature, amylose pull-down; high values mean tight binding. The note with it: protein: recombinant; tags: His6-MBP; chain copies: 2; dsDNA, one strand shown. The essentials: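 A fragment of mouse FoxP3 or FoxP1 without its N-terminus, carrying a His6-MBP tag and produced in E. coli, was combined at 0.4 µM with a 0.1 µM degenerate double-stranded DNA library filled in with Klenow. The mixture sat for 30 min at room temperature in Tris pH 7.5 buffer containing NaCl and MgCl2. Protein–DNA complexes were captured on amylose resin, washed three times, and the DNA was freed with proteinase K, barcoded by PCR and sequenced on Illumina. Binding is expressed as reads-per-million enrichment of pull-down over input, with replicates pooled.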
In the case of “GATGATTGTTCTCCCAGCTGATGAATTCGTTTCGTCGAGTAAACAAATTTTCCTAATCTTTCTGTTCAAGCGCCATCTAC”, the binding signal was 0.895 RPM ratio (pull-down/input).

Consider “GATGATTGTTCTCCCAGCTGATGAATTTACTGAATCGAGTAAACAAATTTTCCTAATCTTTCTGTTCAAGCGCCATCTAC”, for which the binding signal was 1.28 RPM ratio (pull-down/input).

On to “GATGATTGTTCTCCCAGCTGATGAATTGCCACCCTCGAGTAAACAAATTTTCCTAATCTTTCTGTTCAAGCGCCATCTAC”, for which the binding signal is 1 RPM ratio (pull-down/input).

Consider “GATGATTGTTCTCCCAGCTGATGAATTCGTACCCTCGAGTAAACAAATTTTCCTAATCTTTCTGTTCAAGCGCCATCTAC”, for which the binding signal was 0.848 RPM ratio (pull-down/input).

With “GATGATTGTTCTCCCAGCTGATGAATTCGACTAATCGAGTAAACAAATTTTCCTAATCTTTCTGTTCAAGCGCCATCTAC”, the binding signal is 0.991 RPM ratio (pull-down/input).

As for “GATGATTGTTCTCCCAGCTGATGAATTCGGCCTCTCGAGTAAACAAATTTTCCTAATCTTTCTGTTCAAGCGCCATCTAC”, the binding signal was 0.795 RPM ratio (pull-down/input).

“GATGATTGTTCTCCCAGCTGATGAATTGGTTAATTCGAGTAAACAAATTTTCCTAATCTTTCTGTTCAAGCGCCATCTAC”: the binding signal is 1.07 RPM ratio (pull-down/input).

“GATGATTGTTCTCCCAGCTGATGAATTGTATAATTCGAGTAAACAAATTTTCCTAATCTTTCTGTTCAAGCGCCATCTAC”: the binding signal was 1.27 RPM ratio (pull-down/input).

On to “GATGATTGTTCTCCCAGCTGATGAATTGAGTCGTTCGAGTAAACAAATTTTCCTAATCTTTCTGTTCAAGCGCCATCTAC”, for which the binding signal is 0.827 RPM ratio (pull-down/input).

As for “GATGATTGTTCTCCCAGCTGATGAATTTGTAACCTCGAGTAAACAAATTTTCCTAATCTTTCTGTTCAAGCGCCATCTAC”, the binding signal was 1.11 RPM ratio (pull-down/input).

“GATGATTGTTCTCCCAGCTGATGAATTGGTTTGCTCGAGTAAACAAATTTTCCTAATCTTTCTGTTCAAGCGCCATCTAC”: the binding signal was 1.07 RPM ratio (pull-down/input).

For the sequence “GATGATTGTTCTCCCAGCTGATGAATTGTATTATTCGAGTAAACAAATTTTCCTAATCTTTCTGTTCAAGCGCCATCTAC”, the binding signal is 1.67 RPM ratio (pull-down/input).

Consider “GATGATTGTTCTCCCAGCTGATGAATTTCTAGACTCGAGTAAACAAATTTTCCTAATCTTTCTGTTCAAGCGCCATCTAC”, for which the binding signal is 0.86 RPM ratio (pull-down/input).

Take “GATGATTGTTCTCCCAGCTGATGAATTGTAGCGATCGAGTAAACAAATTTTCCTAATCTTTCTGTTCAAGCGCCATCTAC”: the binding signal is 1.04 RPM ratio (pull-down/input).

For the sequence “GATGATTGTTCTCCCAGCTGATGAATTCCGGGGGTCGAGTAAACAAATTTTCCTAATCTTTCTGTTCAAGCGCCATCTAC”, the binding signal was 0.722 RPM ratio (pull-down/input).

For “GATGATTGTTCTCCCAGCTGATGAATTCATGATTTCGAGTAAACAAATTTTCCTAATCTTTCTGTTCAAGCGCCATCTAC”, the binding signal is 1.05 RPM ratio (pull-down/input).

As to “GATGATTGTTCTCCCAGCTGATGAATTTCTACTTTCGAGTAAACAAATTTTCCTAATCTTTCTGTTCAAGCGCCATCTAC”, the binding signal was 0.891 RPM ratio (pull-down/input).

Regarding “GATGATTGTTCTCCCAGCTGATGAATTCCGTATATCGAGTAAACAAATTTTCCTAATCTTTCTGTTCAAGCGCCATCTAC”, the binding signal is 1.03 RPM ratio (pull-down/input).

With “GATGATTGTTCTCCCAGCTGATGAATTGAAACTGTCGAGTAAACAAATTTTCCTAATCTTTCTGTTCAAGCGCCATCTAC”, the binding signal is 0.899 RPM ratio (pull-down/input).

As to “GATGATTGTTCTCCCAGCTGATGAATTTTTCACTTCGAGTAAACAAATTTTCCTAATCTTTCTGTTCAAGCGCCATCTAC”, the binding signal is 0.951 RPM ratio (pull-down/input).

For the sequence “GATGATTGTTCTCCCAGCTGATGAATTACGATCGTCGAGTAAACAAATTTTCCTAATCTTTCTGTTCAAGCGCCATCTAC”, the binding signal was 0.952 RPM ratio (pull-down/input).

As to “GATGATTGTTCTCCCAGCTGATGAATTGCGGCTGTCGAGTAAACAAATTTTCCTAATCTTTCTGTTCAAGCGCCATCTAC”, the binding signal was 1.05 RPM ratio (pull-down/input).

As for “GATGATTGTTCTCCCAGCTGATGAATTTCTGGTATCGAGTAAACAAATTTTCCTAATCTTTCTGTTCAAGCGCCATCTAC”, the binding signal was 0.908 RPM ratio (pull-down/input).

As to “GATGATTGTTCTCCCAGCTGATGAATTGGGAGCATCGAGTAAACAAATTTTCCTAATCTTTCTGTTCAAGCGCCATCTAC”, the binding signal was 1.05 RPM ratio (pull-down/input).

Consider “GATGATTGTTCTCCCAGCTGATGAATTGCTGCTATCGAGTAAACAAATTTTCCTAATCTTTCTGTTCAAGCGCCATCTAC”, for which the binding signal is 1.1 RPM ratio (pull-down/input).

For the sequence “GATGATTGTTCTCCCAGCTGATGAATTACCCGCATCGAGTAAACAAATTTTCCTAATCTTTCTGTTCAAGCGCCATCTAC”, the binding signal is 1.21 RPM ratio (pull-down/input).

With “GATGATTGTTCTCCCAGCTGATGAATTGGTTGACTCGAGTAAACAAATTTTCCTAATCTTTCTGTTCAAGCGCCATCTAC”, the binding signal was 1.01 RPM ratio (pull-down/input).

Consider “GATGATTGTTCTCCCAGCTGATGAATTGTAACTCTCGAGTAAACAAATTTTCCTAATCTTTCTGTTCAAGCGCCATCTAC”, for which the binding signal was 1.03 RPM ratio (pull-down/input).

“GATGATTGTTCTCCCAGCTGATGAATTGGCCTTGTCGAGTAAACAAATTTTCCTAATCTTTCTGTTCAAGCGCCATCTAC”: the binding signal is 0.802 RPM ratio (pull-down/input).

Turning to “GATGATTGTTCTCCCAGCTGATGAATTGCAGCTGTCGAGTAAACAAATTTTCCTAATCTTTCTGTTCAAGCGCCATCTAC”, the binding signal is 1.08 RPM ratio (pull-down/input).

For the sequence “GATGATTGTTCTCCCAGCTGATGAATTAGCGTAGTCGAGTAAACAAATTTTCCTAATCTTTCTGTTCAAGCGCCATCTAC”, the binding signal is 0.954 RPM ratio (pull-down/input).
